Reference: paper PMC10762250, “Molecular mechanism of antihistamines recognition and regulation of the histamine H1 receptor” (Nature Communications, 2024)

Target: wild-type H1R (Homo sapiens, UniProt P35367)
Assay: cell-based

UniProt P35367, sequence (P35367 whole entry): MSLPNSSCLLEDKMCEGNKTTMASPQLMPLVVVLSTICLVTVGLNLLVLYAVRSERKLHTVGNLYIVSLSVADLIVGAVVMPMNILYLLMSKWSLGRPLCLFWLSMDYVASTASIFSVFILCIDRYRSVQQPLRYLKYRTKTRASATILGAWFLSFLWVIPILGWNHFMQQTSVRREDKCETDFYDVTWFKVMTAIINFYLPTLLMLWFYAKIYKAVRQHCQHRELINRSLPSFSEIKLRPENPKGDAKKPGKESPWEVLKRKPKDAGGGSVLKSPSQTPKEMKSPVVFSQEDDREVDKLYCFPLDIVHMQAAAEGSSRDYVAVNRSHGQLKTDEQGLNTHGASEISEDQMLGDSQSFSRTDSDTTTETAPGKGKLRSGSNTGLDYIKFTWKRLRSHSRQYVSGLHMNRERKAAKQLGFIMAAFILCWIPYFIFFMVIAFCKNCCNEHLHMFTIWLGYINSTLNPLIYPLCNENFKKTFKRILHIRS

Work on CN(c1nccc(=O)[nH]1)C1CCN(c2nc3ccccc3n2Cc2ccc(F)cc2)CC1 [mizolastine] yielded an Emax of 51.7 ± 19.4% and an IC50 of 3.84 ± 0.79 nM.
